Assay results reported in PubChem BioAssay AID1460 (National Center for Advancing Translational Sciences (NCATS), 2008).
Where “and” joins values, the source holds several entries; their conditions need not be identical. Equal entries are not always repeated. The campaign covered roughly 270,000 compounds. About 5,800 (2.1%) were called active. The inconclusive results got no clear call from the source; some entries with a clear call stand among them for comparison. Calls come from the whole dose curve; as a rule, active = well fitted inhibition curve with a large enough effect; inconclusive = small, poorly fitted or top-dose-only effect; inactive = flat fitted curve, though single readings scatter. Potencies beside an inconclusive call are fits to weak or partial responses and may not hold up. Some structures have more than one record in an assay (separate samples or runs), and their calls can disagree.

Biological target: Microtubule-associated protein tau (Homo sapiens) (UniProt P10636)
Sequence of UniProt P10636 (P10636 whole entry, looked up): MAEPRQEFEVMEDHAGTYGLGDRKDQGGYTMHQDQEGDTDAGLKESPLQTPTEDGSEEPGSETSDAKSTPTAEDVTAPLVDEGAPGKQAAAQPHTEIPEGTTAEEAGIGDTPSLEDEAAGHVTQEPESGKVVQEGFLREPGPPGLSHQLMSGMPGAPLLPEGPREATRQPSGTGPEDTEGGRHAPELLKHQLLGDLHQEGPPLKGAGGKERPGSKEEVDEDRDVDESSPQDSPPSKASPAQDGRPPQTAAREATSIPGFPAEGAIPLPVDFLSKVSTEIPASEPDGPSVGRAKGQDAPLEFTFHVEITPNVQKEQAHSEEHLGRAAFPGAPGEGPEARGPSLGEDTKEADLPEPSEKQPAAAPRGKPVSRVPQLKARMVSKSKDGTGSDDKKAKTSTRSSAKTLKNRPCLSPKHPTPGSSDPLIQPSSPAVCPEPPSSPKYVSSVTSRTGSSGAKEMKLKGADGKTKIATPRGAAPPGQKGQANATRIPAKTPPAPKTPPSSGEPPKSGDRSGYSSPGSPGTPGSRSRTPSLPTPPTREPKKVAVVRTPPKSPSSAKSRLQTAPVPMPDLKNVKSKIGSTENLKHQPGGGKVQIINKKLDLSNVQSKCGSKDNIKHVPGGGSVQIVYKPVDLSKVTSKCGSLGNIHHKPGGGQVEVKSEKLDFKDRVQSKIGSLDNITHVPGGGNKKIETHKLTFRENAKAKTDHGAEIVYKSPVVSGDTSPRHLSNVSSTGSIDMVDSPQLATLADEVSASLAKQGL
Test: qHTS for Inhibitors of Tau Fibril Formation, Thioflavin T Binding; note: nearly all actives have a fitted effect of over 55% in size
Settings: recombinant tau K18 P301L (four-repeat tau fragment), heparin-induced fibrillization, ThT fluorescence; series mostly up to 57.4 µM; activity, negative = inhibition: at the top concentration
Method in brief: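 Heparin-induced fibrillization of the P301L-mutant K18 repeat-domain fragment of human tau was followed by ThT binding in quantitative high-throughput format.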
% is set by controls: 0 for no effect and ±100 for the full control effect; potency is the fitted concentration of half-maximal effect; tags give direction and shape of the fitted curve.

Structure (SMILES) | Potency | activity, negative = inhibition
CCOC(=O)C(NS(=O)(=O)c1ccc(C)cc1)(C(F)(F)F)P(=O)(OCC(C)C)OCC(C)C (stereo unspecified) | inconclusive: 39.8 µM [inhibitor, single point] | –
C[C@]12N[C@@H](Cc3ccccc31)c1ccccc12 | inactive | –
CCOC(=O)c1cc(C)n(CCc2cnc[nH]2)c1C | – | inactive: 4.26%
NC(=O)CI | – | inactive: -5.77%
COc1ccc(CCn2c(NN=C3CCCC3)nc3c2c(=O)[nH]c(=O)n3C)cc1 | inconclusive: 35.5 µM [inhibitor, single point] | –
O=CC(Cl)P(=O)(N1CCCCC1)N1CCCCC1 (stereo unspecified) | inconclusive: 22.4 µM [inhibitor, partial curve] | –
C=CCSc1nc2c(c(-c3ccsc3)c1C#N)CN(C)CC2 | active: 14.1 µM | –
COC1CCCCC1NCCc1ccccc1 (stereo unspecified) | inconclusive: 8.91 µM [inhibitor, partial curve] | –
CC(C)C[C@H]1C(=O)N2CCCC2[C@]2(O)O[C@](NC(=O)[C@@H]3C=C4c5cccc6[nH]cc(c56)CC4N(C)C3)(C(C)C)C(=O)N12 (stereo partly specified) | active: 12.6 µM | –
O=c1[nH]sc2cc(F)ccc12 | active: 11.2 µM | –
Cc1cc(=O)n(-c2ccccc2Cl)[nH]1 | inconclusive: 2.24 µM [inhibitor, full curve, poor fit] | –
O=C1NC(=O)N(c2ccc3c(c2)OCO3)C(=O)/C1=C\c1ccc(-c2ccccc2C(=O)O)o1 | inconclusive: 3.98 µM [inhibitor, partial curve] | –
O=C(C1CCCCC1)N1CCC(c2nc3c(nnn3Cc3c(F)cccc3Cl)c(=O)[nH]2)CC1 | inconclusive: 20 µM [inhibitor, single point] | –
CN(C)c1ccc(NC(=O)CN2C(=O)CN=C(c3ccccc3)c3ccccc32)cc1 | inconclusive: 15.8 µM [inhibitor, single point] | –
Cc1cccc(C)c1OCC(=O)Nc1ccc(Cl)cc1C(=O)c1ccccc1 | inconclusive: 31.6 µM [inhibitor, single point] | –
COc1ccc(N2C(=O)/C(=C/C=C/c3ccccc3[N+](=O)[O-])C(=O)NC2=S)cc1 | active: 28.2 µM | –
COCCCn1c(N)c(C(=O)NCCC(C)C)c2nc3ccccc3nc21 | inconclusive: 17.8 µM [inhibitor, partial curve] | –
Cc1ccc(N2CCN(C(=O)C3CCC(CNS(=O)(=O)c4ccc(Br)s4)CC3)CC2C)cc1 (stereo unspecified) | inconclusive: 2.51 µM [inhibitor, full curve] | –

Structure (SMILES) | Potency | activity, negative = inhibition
N#CC(C#N)=Cc1ccc(O)c(O)c1 | active: 14.1 µM | –
O=C1NC(=O)N(c2ccc3c(c2)OCO3)C(=O)/C1=C\c1ccc(N2CCCCC2)o1 | inconclusive: 22.4 µM [inhibitor, partial curve] | –
O=C1NC(=O)C(=CN2CCc3ccccc32)C(=O)N1 | active: 10 µM | –
Cc1ccc(/C=C/C(=O)C2C(=O)c3ccccc3C2=O)cc1 | inconclusive: 3.16 µM [inhibitor, full curve] | –
Cc1cc(C)cc(N2C(=O)NC(=O)/C(=C/c3cccn3-c3ccc(Cl)cc3)C2=O)c1 | inconclusive: 6.31 µM [inhibitor, partial curve] | –
S=c1[nH]nc(Cn2c(-c3ccccn3)nc3ccccc32)n1-c1ccc2c(c1)OCCO2 | inconclusive: 31.6 µM [inhibitor, single point] | –
CSc1ncc(/C=C2/C(=O)NC(=O)N(c3ccc(Cl)cc3)C2=O)cn1 | inconclusive: 10 µM [inhibitor, partial curve] | –
CN1C(=O)C(Cc2ccsc2)C(=O)N(C)C1=O | active: 25.1 µM | –
O=C(CNC(=O)c1ccccc1)Nc1ccc(Br)cc1C(=O)c1ccccc1 | – | inactive: -13.2%
N#CC(C#N)=NNc1ccc(S(N)(=O)=O)cc1 | active: 10 µM | –
CCCN1CCc2cc(O)cc3c2C1Cc1ccc(O)c(O)c1-3 (stereo unspecified) | active: 7.94 µM and active: 15.8 µM | –
O=C1NC(=O)N(Cc2ccccc2)C(=O)/C1=C/c1cnc(-c2ccccc2)nc1 | inconclusive: 6.31 µM [inhibitor, partial curve] | –
COc1cccc(N2CCN(CC(=O)Nc3ccc(SC(F)F)cc3)CC2)c1 | inconclusive: 17.8 µM [inhibitor, single point] | –
Cc1cccc(-n2c(C)nc3ccccc3c2=O)c1C | – | inactive: -3.71%
Cc1oc(-c2ccccc2)nc1CN1C(=O)C(C)N=C(c2ccccc2F)c2cc(Cl)ccc21 (stereo unspecified) | inconclusive: 20 µM [inhibitor, partial curve] | –
CC(=O)c1c(O)c(C)c(O)c(Cc2c(O)c3c(c(C(=O)/C=C\c4ccccc4)c2O)OC(C)(C)C=C3)c1O | active: 15.8 µM | –
C=CCN1C(=O)/C(=C/c2ccc3c(c2)CCCN3CCC)C(=O)NC1=S | inconclusive: 14.1 µM [inhibitor, partial curve] | –
Oc1ccc(/C=N/NP(=S)(c2ccccc2)c2ccccc2)cc1 | inconclusive: 15.8 µM [inhibitor, partial curve] | –
